This list was built around the results that the source calls inconclusive (neither active nor inactive); the mix of calls is not that of the screen. Where the call is inconclusive, the potency comes from a doubtful curve fit. The source made the active and inactive calls. Unless noted, the call rests on the fitted dose curve; in most records, active means well fitted curve in the direction sought with a large enough effect in the repeat runs; inconclusive means weak or mixed curves; inactive means no such curve, though single readings can be large; an effect the other way counts as inactive or inconclusive.
Experiment: qHTS assay to identify small molecule agonists of H2AX - cell viability counter screen (AID 1224847; calls by dose curve; further: nearly all actives have a fitted effect of over 30% in size; on activity change, negative = cytotoxicity: top concentration of the series differs between compounds)
Conditions: CHO-K1 viability, CellTiter-Glo luminescence, 3 h; series mostly up to 154 µM; activity change, negative = cytotoxicity: at the top concentration
In short: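 Quantitative HTS viability measurement: CHO-K1 wild-type cells in serum (10% FBS) medium, short 3 hr drug exposure at 37C with 0.76% DMSO, CellTiter-Glo luminescent detection.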
On the % scale 0 is the no-effect control and ±100 the full control effect; potency means the concentration at half of the fitted maximal effect; tags describe the fitted curve by direction and shape.

Structure (SMILES)	activity change, negative = cytotoxicity	Potency
CC(C)(O)CCC(C)(C)O	inactive: -4.99%	–
CCCCOCC	inactive: 0.0339%	–
COC(=O)/C=C(\C)CCC=C(C)C	inactive: -8.02%	–
CNCCS(=O)(=O)O	inactive: 1.21%	–
CN1CCC[C@@H]1Cc1c[nH]c2ccc(CCS(=O)(=O)c3ccccc3)cc12	–	inconclusive: 0.22 µM [cytotoxic, single point]
CC(C)(CCl)c1ccccc1	inactive: 0.388%	–
O=C1CCCCCCCCCCC(=O)OCCO1	–	inconclusive: 89.8 µM [cytotoxic, partial curve]
c1ccc(C(O[C@H]2CCCN(CCc3ccc4c(c3)OCO4)C2)c2ccccc2)cc1	–	inconclusive: 24.7 µM [cytotoxic, full curve]
CCOC(OCC)OCC	–	inconclusive: 1.79 µM [cytotoxic, single point]

Experiment: qHTS assay to identify small molecule antagonists of the estrogen related receptor (ERR) signaling pathway from Tox21 library (AID 1224848); further: nearly all actives have a fitted effect of over 50% in size
Conditions: ERR reporter cell line, luciferase antagonist mode, 18 h; series mostly up to 92.4 µM; activity, negative = inhibition: at the top concentration
In short: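 Tox21 10K compounds in DMSO tested for ERR pathway antagonism in NTP's ERR cell line; 18 h, 37 C exposure; ONE-Glo luminescence.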

Structure (SMILES)	activity, negative = inhibition	Potency
O=C1NC(=O)C2CC=CCC12 (stereo unspecified)	inactive: 2.78%	–
Nc1c(Br)cc([N+](=O)[O-])cc1Br	–	inconclusive: 21.7 µM [inhibitor, full curve]
CC(=O)OC(C)(C)C	inactive: 0.387%	–
C#CC(O)CCC (stereo unspecified)	inactive: 11.9%	–
CCN1CC(CCN2CCOCC2)C(c2ccccc2)(c2ccccc2)C1=O (stereo unspecified)	inactive: -9.18% [at 42.5 µM]	–
CN1CCC[C@@H]1Cc1c[nH]c2ccc(CCS(=O)(=O)c3ccccc3)cc12	inactive: -7.84% [at 42.5 µM]	–
COC(=O)/C=C\C(=O)OC	–	inactive
CCN(CC)CCOC(=O)C1(c2ccccc2)CCCC1	inactive: 0.98% [at 42.5 µM]	–
N#CCC(=O)O	–	inactive

Experiment: qHTS RealTime-Glo MT Cell Viability Assay in HEK293 cells - 32 hour (AID 1224868); further: nearly all actives have a fitted effect of over 50% in size; on activity change, negative = cytotoxic: top concentration of the series differs between compounds
Conditions: RealTime-Glo luminescence; series mostly up to 76.8 µM; activity change, negative = cytotoxic: at the top concentration
In short: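 Reads taken at 0, 8, 16, 24, 32 and 40 h from the same wells. HEK293 cells (600/well) carried RealTime-Glo reagents from seeding, with compound added after a 5 h settle at 37 C.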

Structure (SMILES)	Potency	activity change, negative = cytotoxic
CCCCOCC	inconclusive: 54.9 µM [rising, single point]	–
COC(=O)/C=C(\C)CCC=C(C)C	–	inactive: 1.99%
c1ccc(C(O[C@H]2CCCN(CCc3ccc4c(c3)OCO4)C2)c2ccccc2)cc1	inconclusive: 15.1 µM [cytotoxic, partial curve, poor fit]	–

— PubChem BioAssay (Tox21)
